{"source": "the supplement of paper PMC8728848", "test_in_all_cases": "glycan array binding signal (z-score within array); higher = stronger binding", "conditions_in_all_cases": "glycan notation: IUPAC condensed, linker removed", "key": {"[1]": {"biological_target": "Fuc(a1-3)[Gal3S(b1-4)]GlcNAc6S", "method_in_brief": "(§1)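 Glycan array data were curated from 3228 arrays in the Consortium for Functional Glycomics database and kept only where the protein sequence was available. Glycan names were converted to IUPAC-condensed notation, and columns mapping to the same glycan were averaged. The binding signal is a within-array Z-score, averaged across arrays of the same protein sequence at different concentrations or buffers and across linkers. Negative Z-scores can be read as non-binding.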"}, "[2]": {"biological_target": "Fuc(a1-3)[GalNAc(b1-4)]GlcNAc", "method_in_brief": "as §1"}, "[3]": {"biological_target": "Fuc(a1-3)[GalNAc(b1-4)]GlcNAc6S", "method_in_brief": "as §1"}, "Fuc(a1-4)GlcNAc": {"biological_target": "Fuc(a1-4)GlcNAc", "method_in_brief": "as §1"}, "Fuc(b1-3)GlcNAc": {"biological_target": "Fuc(b1-3)GlcNAc", "method_in_brief": "as §1"}, "Gal(a1-2)Gal": {"biological_target": "Gal(a1-2)Gal", "method_in_brief": "as §1"}, "Gal(a1-3)Gal": {"biological_target": "Gal(a1-3)Gal", "method_in_brief": "as §1"}, "Gal(a1-3)Gal(b1-3)GlcNAc": {"biological_target": "Gal(a1-3)Gal(b1-3)GlcNAc", "method_in_brief": "as §1"}, "[4]": {"biological_target": "Gal(a1-3)Gal(b1-3)GlcNAc(b1-2)Man", "method_in_brief": "as §1"}, "[5]": {"biological_target": "Gal(a1-3)Gal(b1-3)GlcNAc(b1-2)Man(a1-3)[Gal(a1-3)Gal(b1-3)GlcNAc(b1-2)Man(a1-6)]Man(b1-4)GlcNAc(b1-4)GlcNAc", "method_in_brief": "as §1"}, "[6]": {"biological_target": "Gal(a1-3)Gal(b1-3)GlcNAc(b1-3)GalNAc", "method_in_brief": "as §1"}, "[7]": {"biological_target": "Gal(a1-3)Gal(b1-3)GlcNAc(b1-6)GalNAc", "method_in_brief": "as §1"}, "[8]": {"biological_target": "Gal(a1-3)Gal(b1-3)[Fuc(a1-4)]GlcNAc(b1-2)Man(a1-3)[Gal(a1-3)Gal(b1-3)[Fuc(a1-4)]GlcNAc(b1-2)Man(a1-6)]Man(b1-4)GlcNAc(b1-4)GlcNAc", "method_in_brief": "as §1"}, "Gal(a1-3)Gal(b1-4)Glc": {"biological_target": "Gal(a1-3)Gal(b1-4)Glc", "method_in_brief": "as §1"}, "Gal(a1-3)Gal(b1-4)GlcNAc": {"biological_target": "Gal(a1-3)Gal(b1-4)GlcNAc", "method_in_brief": "as §1"}, "[9]": {"biological_target": "Gal(a1-3)Gal(b1-4)GlcNAc(b1-2)Man", "method_in_brief": "as §1"}, "[10]": {"biological_target": "Gal(a1-3)Gal(b1-4)GlcNAc(b1-2)Man(a1-3)[Gal(a1-3)Gal(b1-4)GlcNAc(b1-2)Man(a1-6)]Man(b1-4)GlcNAc(b1-4)GlcNAc", "method_in_brief": "as §1"}, "[11]": {"biological_target": "Gal(a1-3)Gal(b1-4)GlcNAc(b1-3)GalNAc", "method_in_brief": "as §1"}, "[12]": {"biological_target": "Gal(a1-3)Gal(b1-4)GlcNAc(b1-6)GalNAc", "method_in_brief": "as §1"}, "[13]": {"biological_target": "Gal(a1-3)Gal(b1-4)[Fuc(a1-3)]GlcNAc", "method_in_brief": "as §1"}, "[14]": {"biological_target": "Gal(a1-3)Gal(b1-4)[Fuc(a1-3)]GlcNAc(b1-2)Man(a1-3)[Gal(a1-3)Gal(b1-4)[Fuc(a1-3)]GlcNAc(b1-2)Man(a1-6)]Man(b1-4)GlcNAc(b1-4)GlcNAc", "method_in_brief": "as §1"}, "Gal(a1-3)GalNAc": {"biological_target": "Gal(a1-3)GalNAc", "method_in_brief": "as §1"}, "[15]": {"biological_target": "Gal(a1-3)[Gal(a1-4)]Gal(b1-4)GlcNAc", "method_in_brief": "as §1"}, "[16]": {"biological_target": "Gal(a1-4)Gal(b1-3)GlcNAc(b1-2)Man(a1-3)[Gal(a1-4)Gal(b1-3)GlcNAc(b1-2)Man(a1-6)]Man(b1-4)GlcNAc(b1-4)GlcNAc", "method_in_brief": "as §1"}, "Gal(a1-4)Gal(b1-4)Glc": {"biological_target": "Gal(a1-4)Gal(b1-4)Glc", "method_in_brief": "as §1"}, "Gal(a1-4)Gal(b1-4)GlcNAc": {"biological_target": "Gal(a1-4)Gal(b1-4)GlcNAc", "method_in_brief": "as §1"}, "[17]": {"biological_target": "Gal(a1-4)Gal(b1-4)GlcNAc(b1-2)Man(a1-3)[Gal(a1-4)Gal(b1-4)GlcNAc(b1-2)Man(a1-6)]Man(b1-4)GlcNAc(b1-4)GlcNAc", "method_in_brief": "as §1"}, "[18]": {"biological_target": "Gal(a1-4)Gal(b1-4)GlcNAc(b1-3)Gal(b1-4)Glc", "method_in_brief": "as §1"}, "Gal(a1-4)GlcNAc": {"biological_target": "Gal(a1-4)GlcNAc", "method_in_brief": "as §1"}, "Gal(a1-6)Glc": {"biological_target": "Gal(a1-6)Glc", "method_in_brief": "as §1"}, "Gal(b1-2)Gal": {"biological_target": "Gal(b1-2)Gal", "method_in_brief": "as §1"}, "Gal(b1-3)Gal": {"biological_target": "Gal(b1-3)Gal", "method_in_brief": "as §1"}, "Gal(b1-3)Gal(b1-4)GlcNAc": {"biological_target": "Gal(b1-3)Gal(b1-4)GlcNAc", "method_in_brief": "as §1"}, "Gal(b1-3)GalNAc": {"biological_target": "Gal(b1-3)GalNAc", "method_in_brief": "as §1"}, "[19]": {"biological_target": "Gal(b1-3)GalNAc(a1-3)[Fuc(a1-2)]Gal(b1-4)Glc", "method_in_brief": "as §1"}, "[20]": {"biological_target": "Gal(b1-3)GalNAc(a1-3)[Fuc(a1-2)]Gal(b1-4)GlcNAc", "method_in_brief": "as §1"}, "Gal(b1-3)GalNAc(b1-3)Gal": {"biological_target": "Gal(b1-3)GalNAc(b1-3)Gal", "method_in_brief": "as §1"}, "[21]": {"biological_target": "Gal(b1-3)GalNAc(b1-3)Gal(a1-4)Gal(b1-4)Glc", "method_in_brief": "as §1"}, "[22]": {"biological_target": "Gal(b1-3)GalNAc(b1-4)Gal(b1-4)Glc", "method_in_brief": "as §1"}, "[23]": {"biological_target": "Gal(b1-3)GalNAc(b1-4)[Neu5Ac(a2-3)]Gal(b1-4)Glc", "method_in_brief": "as §1"}, "Gal(b1-3)GlcNAc": {"biological_target": "Gal(b1-3)GlcNAc", "method_in_brief": "as §1"}, "[24]": {"biological_target": "Gal(b1-3)GlcNAc(a1-3)Gal(b1-4)GlcNAc", "method_in_brief": "as §1"}, "[25]": {"biological_target": "Gal(b1-3)GlcNAc(a1-6)Gal(b1-4)GlcNAc", "method_in_brief": "as §1"}, "Gal(b1-3)GlcNAc(b1-2)Man": {"biological_target": "Gal(b1-3)GlcNAc(b1-2)Man", "method_in_brief": "as §1"}, "[26]": {"biological_target": "Gal(b1-3)GlcNAc(b1-2)Man(a1-3)[Gal(b1-3)GlcNAc(b1-2)Man(a1-6)]Man(b1-4)GlcNAc(b1-4)GlcNAc", "method_in_brief": "as §1"}}, "note": "The list shows a part of the results.", "data": [{"binder": "Mermaid3 (Stilbonema majum) (protein) MGSSHHHHHHSSGLVPRGSHMAASGWLRSPQGTVVKLYRRSLSWSKADEFCKDVDGRLVVDRTADMHLFLIKNVLKEKKSRVWVGLRRTASHSRTWIWSDGTRQNEGDLDANLWLRDEPNDAAGEEECALFMYSPWEKAWGLNDYLCRGGCRNYQFICEKWIR", "values": [{"measurement": "glycan array binding signal (z-score)", "setting": "[1]", "result": -0.521}, {"measurement": "glycan array binding signal (z-score)", "setting": "[2]", "result": 0.811}, {"measurement": "glycan array binding signal (z-score)", "setting": "[3]", "result": -0.469}, {"measurement": "glycan array binding signal (z-score)", "setting": "Fuc(a1-4)GlcNAc", "result": 1.39}, {"measurement": "glycan array binding signal (z-score)", "setting": "Fuc(b1-3)GlcNAc", "result": -0.119}, {"measurement": "glycan array binding signal (z-score)", "setting": "Gal(a1-2)Gal", "result": -0.724}, {"measurement": "glycan array binding signal (z-score)", "setting": "Gal(a1-3)Gal", "result": -0.579}, {"measurement": "glycan array binding signal (z-score)", "setting": "Gal(a1-3)Gal(b1-3)GlcNAc", "result": -0.73}, {"measurement": "glycan array binding signal (z-score)", "setting": "[4]", "result": -0.634}, {"measurement": "glycan array binding signal (z-score)", "setting": "[5]", "result": 0.163}, {"measurement": "glycan array binding signal (z-score)", "setting": "[6]", "result": -0.424}, {"measurement": "glycan array binding signal (z-score)", "setting": "[7]", "result": -0.522}, {"measurement": "glycan array binding signal (z-score)", "setting": "[8]", "result": 2.19}, {"measurement": "glycan array binding signal (z-score)", "setting": "Gal(a1-3)Gal(b1-4)Glc", "result": -0.106}, {"measurement": "glycan array binding signal (z-score)", "setting": "Gal(a1-3)Gal(b1-4)GlcNAc", "result": -0.531}, {"measurement": "glycan array binding signal (z-score)", "setting": "[9]", "result": -0.275}, {"measurement": "glycan array binding signal (z-score)", "setting": "[10]", "result": 0.213}, {"measurement": "glycan array binding signal (z-score)", "setting": "[11]", "result": -0.64}, {"measurement": "glycan array binding signal (z-score)", "setting": "[12]", "result": -0.858}, {"measurement": "glycan array binding signal (z-score)", "setting": "[13]", "result": -0.5}, {"measurement": "glycan array binding signal (z-score)", "setting": "[14]", "result": -0.164}, {"measurement": "glycan array binding signal (z-score)", "setting": "Gal(a1-3)GalNAc", "result": -0.489}, {"measurement": "glycan array binding signal (z-score)", "setting": "[15]", "result": 0.067}, {"measurement": "glycan array binding signal (z-score)", "setting": "[16]", "result": -0.405}, {"measurement": "glycan array binding signal (z-score)", "setting": "Gal(a1-4)Gal(b1-4)Glc", "result": 0.311}, {"measurement": "glycan array binding signal (z-score)", "setting": "Gal(a1-4)Gal(b1-4)GlcNAc", "result": -0.038}, {"measurement": "glycan array binding signal (z-score)", "setting": "[17]", "result": 1.59}, {"measurement": "glycan array binding signal (z-score)", "setting": "[18]", "result": -0.064}, {"measurement": "glycan array binding signal (z-score)", "setting": "Gal(a1-4)GlcNAc", "result": -0.741}, {"measurement": "glycan array binding signal (z-score)", "setting": "Gal(a1-6)Glc", "result": -0.269}, {"measurement": "glycan array binding signal (z-score)", "setting": "Gal(b1-2)Gal", "result": -0.062}, {"measurement": "glycan array binding signal (z-score)", "setting": "Gal(b1-3)Gal", "result": -0.277}, {"measurement": "glycan array binding signal (z-score)", "setting": "Gal(b1-3)Gal(b1-4)GlcNAc", "result": 0.587}, {"measurement": "glycan array binding signal (z-score)", "setting": "Gal(b1-3)GalNAc", "result": 0.892}, {"measurement": "glycan array binding signal (z-score)", "setting": "[19]", "result": 0.896}, {"measurement": "glycan array binding signal (z-score)", "setting": "[20]", "result": 0.49}, {"measurement": "glycan array binding signal (z-score)", "setting": "Gal(b1-3)GalNAc(b1-3)Gal", "result": 1.33}, {"measurement": "glycan array binding signal (z-score)", "setting": "[21]", "result": -0.2}, {"measurement": "glycan array binding signal (z-score)", "setting": "[22]", "result": -0.109}, {"measurement": "glycan array binding signal (z-score)", "setting": "[23]", "result": -0.021}, {"measurement": "glycan array binding signal (z-score)", "setting": "Gal(b1-3)GlcNAc", "result": -0.295}, {"measurement": "glycan array binding signal (z-score)", "setting": "[24]", "result": -0.698}, {"measurement": "glycan array binding signal (z-score)", "setting": "[25]", "result": -0.662}, {"measurement": "glycan array binding signal (z-score)", "setting": "Gal(b1-3)GlcNAc(b1-2)Man", "result": -0.094}, {"measurement": "glycan array binding signal (z-score)", "setting": "[26]", "result": -0.627}]}]}
